One data set deals with Mino. The data set is described as follows: Cytotoxicity in vitro (CellTiter-Glo viability), Mino. Format: cell-based, human. The conditions noted are these: Mino (MCL).
The next data set deals with DOHH2. The conditions noted are these: read-out: EC50 (nM), cytotoxicity in vitro; DOHH2 (DLBCL), 72 hours. The protocol:
(§1) ROR1 binding by these conjugates was tested in cell culture to define the potency of various linker-cytotoxic agent combinations. Three different types of cancer cell lines were tested: B-lymphoma cell-lines TMD-8, HBL-1, and DOHH2; triple negative breast cancer cell lines HCC1187, MDA-MB-468, Bt549; and ovarian cancer cell lines A2008, TOV112D, JHOM1, and SKOvr3.
(§2) Cells were cultured in log phase growth and distributed into 96-well plates. Each cell line was plated at a slightly different cell density, ranging from 5×10^3 to 50×10^4 cells/well. Cells in duplicate were incubated with 3-fold serial dilution of a particular immunoconjugate (10, 3.33, 1.11, 0.37, 0.12, 0.041, 0.014, and 0.0045 μM) for 72 hours at 37° C. and 5% CO2. After treatment, cells were incubated with an equal volume of CellTiter-Glo® reagent (Promega Inc.) for 15 minutes at room temperature and viability was determined by a luminometer. Curves and EC50 values were generated in GraphPad Prism using a sigmoidal dose response non-linear regression fit.
(§3) Cells were grown and distributed into 96-well plates as described in Example 5. Cells in duplicate were incubated with 3-fold serial dilution of a particular immunoconjugate (660, 220, 73.3, 24.4, 8.14, 2.71, 0.91, and 0.3 nM) for 72 hours at 37° C. and 5% CO2. In some experiments, cells were incubated with an immunoconjugate for 96 hours instead of 72 hours (values highlighted with “*”). After treatment, cell viability was determined as described in Example 5. Cell surface ROR1 expression was assessed by quantitative flow cytometry and ROR1 expression was characterized as MFI>30 or MFI<30 (MFI: mean fluorescent intensity).

In another data set the test system is Mec-vector. Kind of data set: Cytotoxicity in vitro (CellTiter-Glo viability), Mec-vector. As to conditions: read-out: EC50 (nM), cytotoxicity in vitro; Mec-vector (CLL), 72 hours. The protocol: as §2, §3
(§4) The MEC1 cell line, which is derived from B-chronic lymphocytic leukemia in prolymphocytoid transformation, was transfected with either an expression vector encoding human ROR1 or a control vector, and stable cell lines were created using selection media containing G418.

The subject of the next data set is Hep-G2. Format: cell-based, human. As to conditions: Hep-G2 (HCC), 72 hours; read-out: EC50 (nM), cytotoxicity in vitro.
Another data set concerns MDA-MB-231. The data set is described as follows: Cytotoxicity in vitro (CellTiter-Glo viability), MDA-MB-231. Type of data set: cell-based, human. The conditions noted are these: MDA-MB-231 (TNBC).
The next data set concerns Mec-ROR. The data set is described as follows: Cytotoxicity in vitro (CellTiter-Glo viability), Mec-ROR. The conditions noted are these: read-out: EC50 (nM), cytotoxicity in vitro; Mec-ROR (CLL), 72 hours. The method, then: as §2, §3, §4
A further data set has as its system KMS-PE. The data set is described as follows: Cytotoxicity in vitro (CellTiter-Glo viability), KMS-PE. As to conditions: KMS-PE (KMS-12PE in Table 9.3) (MM), 72 hours. Type of data set: cell-based, human.
The next data set relates to FaDu. Format: cell-based, human. The conditions noted are these: FaDu (HN), 72 hours; read-out: EC50 (nM), cytotoxicity in vitro.
For another data set, the system named is Jeko-1 MCL xenograft. The data set is described as follows: Jeko-1 human MCL xenograft model (study 7). Format: in vivo, mouse. As to conditions: 1 mg/kg ADC-N, ADC-P, ADC-R; 5 mg/kg ADC-A, ADC-L, ADC-M, ADC-S, ADC-T; IV Q4D. The method, then: Jeko-1 (MCL) cells were engrafted subcutaneously into mice. When tumor size reached 100 mm^3, the mice were randomized into nine groups, 9 mice/group. The groups were vehicle control; 1 mg/kg ADC-N, ADC-P or ADC-R; or 5 mg/kg ADC-A, ADC-L, ADC-M, ADC-S, or ADC-T. The mice were dosed IV q4d.

A further data set deals with H460. The data set is described as follows: Cytotoxicity in vitro (CellTiter-Glo viability), H460. Type of data set: cell-based, human. As to conditions: H460 (NSCLC).
The next data set has as its system MCF-7. The data set is described as follows: Cytotoxicity in vitro (CellTiter-Glo viability), MCF-7. Type of data set: cell-based, human. As to conditions: MCF-7 (ER+/PR+/HER2− Breast), 72 hours.
The subject of another data set is Jeko-1. Kind of data set: Cytotoxicity in vitro (CellTiter-Glo viability), Jeko-1. Type of data set: cell-based, human. As to conditions: Jeko-1 (MCL), read-out: EC50 (nM), cytotoxicity in vitro.
In another data set the test system is U2OS. Format: cell-based, human. As to conditions: U2OS (OS), 72 hours; read-out: EC50 (nM), cytotoxicity in vitro.
Data set [1] has as its target T1, cell surface ROR1 on Jeko-1 cells (Homo sapiens, UniProt Q01973).
T1 construct: The Jeko-1 cell line, from mantle cell lymphoma, is a suspension cell line; host or cells: Jeko-1 (human mantle cell lymphoma)
Kind of data set: Cell surface ROR1 expression during internalization, Jeko-1 cells. Format: cell-based. As to conditions: up to 4 hours. The protocol: Internalization of antibodies was measured using pulse-chase approaches that detected non-internalized, cell surface antibody at various time points (2, 5, 10, 15, 20, 30, 60, 120 and 240 minutes). In this study, in addition to measuring non-internalized cell surface antibody, the expression of ROR1 on the cell surface was quantitated either by (1) re-staining with Ab1 and a secondary antibody or (2) by using a second, labeled anti-ROR1 antibody that recognizes an epitope distinct from that of Ab1.
For the first approach, internalization of Ab1 on Jeko-1 cells was performed as described in Example 3 (one sample was processed at each time point to quantitate antibody remaining on the cell surface). Additionally, a second sample at each time point was rapidly re-stained using saturating levels of Ab1 (30 μg/mL) while maintaining the cells on ice. Subsequently, the cells were washed and surface antibody was quantitated using the same secondary antibody used for internalization measurements.
An alternative approach to measuring cell surface ROR1 expression in conjunction with Ab1 internalization studies was tested. Specifically, cell surface ROR1 expression was quantitated at 0, 0.5, 1, 2, and 4 hours by staining cells directly with a labeled anti-ROR1 antibody that binds an epitope distinct from that of Ab1.

The next data set deals with A549. Kind of data set: Cytotoxicity in vitro (CellTiter-Glo viability), A549. The conditions noted are these: A549 (NSCLC), 72 hours. Type of data set: cell-based, human.
For the next data set, the system named is MDA-MB-468. Kind of data set: Cytotoxicity in vitro (CellTiter-Glo viability), MDA-MB-468. As to conditions: read-out: EC50 (nM), cytotoxicity in vitro, MDA-MB-468 (TNBC). The method, then:
as §1, §2, §3

The test system of a further data set is Bx-PC3. Kind of data set: Cytotoxicity in vitro (CellTiter-Glo viability), Bx-PC3. Type of data set: cell-based, human. The conditions noted are these: Bx-PC3 (Pancreatic), 96 hours (values marked *).
A further data set relates to H1975. Kind of data set: Cytotoxicity in vitro (CellTiter-Glo viability), H1975. Type of data set: cell-based, human. As to conditions: H1975 (NSCLC), 96 hours (values marked *).
Another data set deals with HCC1187. The data set is described as follows: Cytotoxicity in vitro (CellTiter-Glo viability), HCC1187. The conditions noted are these: read-out: EC50 (nM), cytotoxicity in vitro; HCC1187 (TNBC), 96 hours (values marked *). The protocol: as §1, §2
Cells were grown and distributed into 96-well plates as described in Example 5. […] After treatment, cell viability was determined as described in Example 5. Cell surface ROR1 expression was assessed by quantitative flow cytometry and ROR1 expression was characterized as MFI>30 or MFI<30 (MFI: mean fluorescent intensity).

For another data set, the system named is HCC1806. The data set is described as follows: Cytotoxicity in vitro (CellTiter-Glo viability), HCC1806. Type of data set: cell-based, human. The conditions noted are these: HCC1806 (TNBC), 96 hours (values marked *).

Values joined by “and” are separate entries in the source; they are usually repeats but may differ in a detail not shown here. Equal values may be shown once. Read-outs that look alike come from different tables or passages of the source.

T1 sequence (Q01973 30-937): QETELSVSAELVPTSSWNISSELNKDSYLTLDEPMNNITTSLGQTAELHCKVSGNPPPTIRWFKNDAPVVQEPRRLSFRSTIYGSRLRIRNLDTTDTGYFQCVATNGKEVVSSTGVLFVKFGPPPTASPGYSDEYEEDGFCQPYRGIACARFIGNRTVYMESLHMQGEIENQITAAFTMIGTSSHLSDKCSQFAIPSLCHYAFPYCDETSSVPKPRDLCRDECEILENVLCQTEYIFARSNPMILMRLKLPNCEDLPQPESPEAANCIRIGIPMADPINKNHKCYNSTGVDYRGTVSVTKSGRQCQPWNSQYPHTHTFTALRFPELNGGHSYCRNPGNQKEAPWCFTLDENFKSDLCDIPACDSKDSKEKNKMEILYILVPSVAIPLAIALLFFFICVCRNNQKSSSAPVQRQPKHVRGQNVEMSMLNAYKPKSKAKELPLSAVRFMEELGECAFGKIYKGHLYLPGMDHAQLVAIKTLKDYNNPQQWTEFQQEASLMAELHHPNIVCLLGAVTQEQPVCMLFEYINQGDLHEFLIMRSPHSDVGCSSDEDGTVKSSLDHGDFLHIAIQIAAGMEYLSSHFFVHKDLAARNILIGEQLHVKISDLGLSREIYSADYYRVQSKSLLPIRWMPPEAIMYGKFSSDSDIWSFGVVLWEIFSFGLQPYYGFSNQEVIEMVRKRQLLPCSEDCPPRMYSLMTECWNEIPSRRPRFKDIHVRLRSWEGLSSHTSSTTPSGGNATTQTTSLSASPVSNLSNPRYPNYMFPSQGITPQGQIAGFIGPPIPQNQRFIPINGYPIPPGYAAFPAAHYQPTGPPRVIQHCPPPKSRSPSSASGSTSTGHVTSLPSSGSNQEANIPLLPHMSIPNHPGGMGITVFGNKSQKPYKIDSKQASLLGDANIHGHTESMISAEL

B1: ADC-N: Ab1 conjugated via MAL-PEG4-VC-PAB-DMEA to PNU-159682 (conjugate)
heavy: QVQLQESGPGLVKPSQTLSLTCTVSGYAFTAYNIHWVRQAPGQGLEWMGSFDPYDGGSSYNQKFKDRLTISKDTSKNQVVLTMTNMDPVDTATYYCARGWYYFDYWGHGTLVTVSS[skipping human IgG1 constant region]
light: DIVMTQTPLSLPVTPGEPASISCRASKSISKYLAWYQQKPGQAPRLLIYSGSTLQSGIPPRFSGSGYGTDFTLTINNIESEDAAYYFCQQHDESPYTFGEGTKVEIKRTVAAPSVFIFPPSDEQLKSGTASVVCLLNNFYPREAKVQWKVDNALQSGNSQESVTEQDSKDSTYSLSSTLTLSKADYEKHKVYACEVTHQGLSSPVTKSFNRGEC
B1: the EC50 was 7.7 nM with Mino (72 hours); 3.8 nM in the data set on DOHH2; 772 nM in the data set on Mec-vector; 20.8 nM in the data set with Hep-G2; 71 nM in the data set on MDA-MB-231 (72 hours); 262 nM in the data set on Mec-ROR. Besides, the EC50 with KMS-PE is 26.8 nM; with FaDu, 27.1 nM; with H460 (72 hours), 84.4 nM; with MCF-7, 78.6 nM; with Jeko-1 (72 hours) it was 31.7 nM and 20.3 nM; with U2OS, 11.2 nM. Further, in the data set with A549, the EC50 is 30.7 nM. Also, the “tumor growth / average tumor size (interim results, day 14)” value in the data set with Jeko-1 MCL xenograft was “inhibition of tumor growth”. Besides, the “cell surface ROR1 expression during treatment” value in [1] is “ROR1 expression was maintained, or slightly increased”.

B2: ADC-J: Ab1 conjugated via MAL-PEG4-VC-PAB-DMEA to Duocarmycin TM (conjugate)
heavy: QVQLQESGPGLVKPSQTLSLTCTVSGYAFTAYNIHWVRQAPGQGLEWMGSFDPYDGGSSYNQKFKDRLTISKDTSKNQVVLTMTNMDPVDTATYYCARGWYYFDYWGHGTLVTVSS[skipping human IgG1 constant region]
light: DIVMTQTPLSLPVTPGEPASISCRASKSISKYLAWYQQKPGQAPRLLIYSGSTLQSGIPPRFSGSGYGTDFTLTINNIESEDAAYYFCQQHDESPYTFGEGTKVEIKRTVAAPSVFIFPPSDEQLKSGTASVVCLLNNFYPREAKVQWKVDNALQSGNSQESVTEQDSKDSTYSLSSTLTLSKADYEKHKVYACEVTHQGLSSPVTKSFNRGEC
For B2, the EC50 in the data set on DOHH2 was 5.97 nM; in the data set with KMS-PE it was 362 nM; with FaDu it was 658 nM; in the data set on MCF-7, 268 nM; with MDA-MB-468 (72 hours), 146 nM; in the data set on Jeko-1 (72 hours) it was 59.4 nM.

B3: ADC-Q (conjugate)
heavy: QVQLQESGPGLVKPSQTLSLTCTVSGYAFTAYNIHWVRQAPGQGLEWMGSFDPYDGGSSYNQKFKDRLTISKDTSKNQVVLTMTNMDPVDTATYYCARGWYYFDYWGHGTLVTVSS[skipping human IgG1 constant region]
light: DIVMTQTPLSLPVTPGEPASISCRASKSISKYLAWYQQKPGQAPRLLIYSGSTLQSGIPPRFSGSGYGTDFTLTINNIESEDAAYYFCQQHDESPYTFGEGTKVEIKRTVAAPSVFIFPPSDEQLKSGTASVVCLLNNFYPREAKVQWKVDNALQSGNSQESVTEQDSKDSTYSLSSTLTLSKADYEKHKVYACEVTHQGLSSPVTKSFNRGEC
For B3, the EC50 with Mino (96 hours (values marked *)) came to 139 nM; with Bx-PC3, 45.6 nM; with MDA-MB-231 (96 hours (values marked *)), 168 nM; in the data set with H460 (96 hours (values marked *)), 180 nM; with H1975 it was 26.8 nM; in the data set on MDA-MB-468 (96 hours (values marked *)) it was 79.7 nM. For the same molecule, the results for the EC50 with Jeko-1 (96 hours (values marked *)), with HCC1187 and in the data set on HCC1806 were 265 nM, 5.3 nM and 56.1 nM, respectively.

For the origin of these results see USRE50631E1, “ROR1 antibody immunoconjugates” (VelosBio Inc., priority 2017, dated 2025).
